# ± gives the standard deviation of the averaged measurements. Over roughly 33,000 sequences, “E-score (dimensionless, -0.5 to 0.5)” has its median near -0.046; the highest 2% begin near 0.36. Some of the results follow.
# Tested on: T1, SpTbr T-box DNA-binding domain (GST fusion)
# T1 sequence: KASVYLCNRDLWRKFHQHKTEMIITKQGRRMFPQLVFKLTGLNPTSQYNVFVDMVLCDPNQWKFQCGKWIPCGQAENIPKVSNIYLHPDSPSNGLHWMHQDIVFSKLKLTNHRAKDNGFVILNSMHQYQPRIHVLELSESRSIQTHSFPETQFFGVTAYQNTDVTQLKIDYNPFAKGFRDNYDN
# Test: PBM E-score of 8-mer (E-score (dimensionless, -0.5 to 0.5)); Tbr is Tbrain of the sea star Patiria miniata (Pm) or the sea urchin Strongylocentrotus purpuratus (Sp); higher = stronger binding preference; most listed sequences are background and not binding sites
# Conditions: the construct has about 5 more residues each side
# Method in brief: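 Each ungapped 8-mer received an enrichment E-score from the Universal PBM Analysis Suite, averaged over duplicate arrays. The proteins were Tbr T-box DNA-binding domains, covering the whole T-box plus about five flanking residues, fused to GST and expressed in BL21 E. coli at 20 °C before glutathione affinity purification. Universal Agilent oligonucleotide arrays were made double-stranded by primer extension and incubated with 200 nM protein in PBS (pH 7.5). The arrays were then scanned and quantified, and every 8-mer was scored from probe intensities.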
row,Sequence,PBM E-score of 8-mer
1,ATTCCAAT,0.101 ± 0.05
2,AAGGCGCG,0.3333 ± 0.00044
3,ATGCAATC,-0.0841 ± 0.019
4,ATGGACTA,-0.0835 ± 0.016
5,CGTATGAA,-0.0106 ± 0.026
6,CTTCTTTA,0.00213 ± 0.1
7,CACACGAA,0.0582 ± 0.055
8,AAACCCGC,0.136 ± 0.044
9,TGGTTACA,0.0299 ± 0.0034
10,ATACCTTC,0.00689 ± 0.0019
11,ACCAGAAG,0.0252 ± 0.0067
12,ACAGACTA,-0.194 ± 0.0063
13,GTAAATTA,-0.122 ± 0.028
14,CAGGCCGC,-0.0803 ± 0.0052
15,ACCTTCAG,-0.0468 ± 0.0081
16,CCGGCTCA,-0.107 ± 0.0084
17,ATGCCGAG,-0.199 ± 0.017
18,ACTGAGAC,-0.191 ± 0.022
19,ATGGCTTC,-0.12 ± 0.065
20,ATTACGCC,-0.0243 ± 0.041
21,AAATATCC,-0.0458 ± 0.0059
22,ACGCCGAC,0.161 ± 0.084

row,Sequence,PBM E-score of 8-mer
1,TCGGTTAA,-0.0848 ± 0.015
2,CGGGTGGA,0.00923 ± 0.0075
3,CTGCGAGC,0.162 ± 0.0059
4,AACCGAAT,-0.178 ± 0.037
5,ATCTGTCA,0.263 ± 0.043
6,CTCGATTC,-0.164 ± 0.026
7,GCAAGTAA,0.0895 ± 0.0029
8,ATTTCCGG,-0.243 ± 0.04
9,GTGTGGCA,0.292 ± 0.026
10,ATCTTCAG,-0.141 ± 0.0099
11,AAATTGGT,-0.122 ± 0.047
12,CACCTTGG,0.45 ± 0.005
13,GCAGGCTA,-0.178 ± 0.05
14,ACGTGGGC,-0.0975 ± 0.06
15,CTGCCGGA,-0.156 ± 0.088
16,CTTCAGGA,-0.14 ± 0.02
17,AGTCAAAA,-0.181 ± 0.0086
18,CCAGCATA,-0.187 ± 0.08
19,ACACTTCA,0.412 ± 0.0084
20,CCTGATAG,-0.0894 ± 0.034
21,ATCGGTCC,-0.101 ± 0.0079
22,AGAGCTCG,-0.266 ± 0.014

row,Sequence,PBM E-score of 8-mer
1,GTCTCGGA,-0.31 ± 0.009
2,AGGCTTGC,-0.114 ± 0.002
3,GGCGCGTA,0.117 ± 0.017
4,GATATTCC,-0.118 ± 0.075
5,CCCCCCTA,-0.189 ± 0.0051
6,CGCATATA,-0.0151 ± 0.069
7,TATGCACA,-0.0282 ± 0.087
8,ACTTTACC,-0.0717 ± 0.028
9,TGGGATAA,0.0854 ± 0.017
10,TCCTAGGA,-0.134 ± 0.08
11,ATGATTCC,-0.0927 ± 0.034
12,GAGTCGAA,0.0619 ± 0.02
13,CTTGACCC,-0.308 ± 0.038
14,AGATCAGG,-0.145 ± 0.025
15,GTTCTATA,-0.135 ± 0.01
16,CTTCATGC,-0.135 ± 0.037
17,AGCGTCAC,0.3328 ± 0.0021
18,AATGACAT,0.0122 ± 0.015
19,TAAAGTAA,-0.14 ± 0.1
20,ACCTCAAG,0.141 ± 0.0034
21,CATTGAAC,-0.171 ± 0.022
22,ACATCGGT,-0.0851 ± 0.019

row,Sequence,PBM E-score of 8-mer
1,AAGAGCAA,-0.0459 ± 0.021
2,CCCATAGA,-0.281 ± 0.032
3,CGCTAAAA,0.252 ± 0.012
4,GTGCGCAC,0.258 ± 0.028
5,ACCGCCAG,0.09 ± 0.065
6,GAAAGTAA,0.138 ± 0.057
7,AAGTGACG,0.4 ± 0.0071
8,TCGTGACA,0.325 ± 0.0037
9,CCCCCGGG,-0.0634 ± 0.012
10,AGCACGGG,-0.0867 ± 0.012
11,CATACCTA,-0.186 ± 0.058
12,CAATAGAG,-0.143 ± 0.12
13,ACGTGCCG,0.199 ± 0.058
14,GGAGCAGA,-0.255 ± 0.057
15,AGAAGGTC,-0.2756 ± 0.0017
16,GAGGTGGA,0.06436 ± 0.00017
17,GCCGAGGA,0.0136 ± 0.025
18,ACCGAAGG,-0.165 ± 0.043
19,AGAAGTAT,-0.0503 ± 0.0051
20,CGCGTAGA,-0.0981 ± 0.0072
21,TACTAAGA,-0.124 ± 0.022
22,AAGACTGG,-0.0999 ± 0.0028

row,Sequence,PBM E-score of 8-mer
1,CGACAGAG,0.0503 ± 0.04
2,CGAGTCCG,-0.131 ± 0.0027
3,CCTCGTCG,0.244 ± 0.028
4,CAGGGGTC,-0.231 ± 0.086
5,TGGAGCCA,-0.0718 ± 0.046
6,AGATAGGC,-0.196 ± 0.00035
7,CTGCGGAC,-0.018 ± 0.086
8,CTAGTTAA,-0.0652 ± 0.081
9,AACTCGGC,-0.138 ± 0.099
10,GGGTCCAC,-0.0586 ± 0.0085
11,ACTGCAGA,-0.0918 ± 0.01
12,ACCACAGC,-0.156 ± 0.033
13,CTGGAAAA,-0.0263 ± 0.024
14,GGCAGAAA,0.0136 ± 0.069
15,CGCTAGTC,0.0969 ± 0.0088
16,GTCCTCAC,0.2647 ± 0.0021
17,CTCGTCTA,-0.00184 ± 0.065
18,AAGTACAC,0.101 ± 0.033
19,AAGCAATA,-0.197 ± 0.027
20,ATAGGCCC,-0.177 ± 0.11
21,AACGGCTA,0.00613 ± 0.046

# From the supplement of paper PMC4166925
